# In the supplement of paper PMC8728848:
# The other results are listed elsewhere or left out.
# How the values were obtained:
# Experiment in all cases: glycan array binding signal (z-score within array); higher = stronger binding
# Details in all cases: glycan notation: IUPAC condensed, linker removed
# [1] = target: Fuc(a1-3)[Gal3S(b1-4)]GlcNAc
# Method in brief: (§1)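 Negative Z-scores can be read as non-binding. The Z-score is calculated within each array and then averaged across arrays of one protein sequence at different concentrations or buffers and across linkers. Arrays, 3228 in all, were curated from the Consortium for Functional Glycomics database and kept only where the protein sequence was available.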
# [2] = target: Fuc(a1-3)[Gal3S(b1-4)]GlcNAc6S
# Method in brief: as §1
# [3] = target: Fuc(a1-3)[GalNAc(b1-4)]GlcNAc
# Method in brief: as §1
# [4] = target: Fuc(a1-3)[GalNAc(b1-4)]GlcNAc6S
# Method in brief: as §1
# Fuc(a1-4)GlcNAc = target: Fuc(a1-4)GlcNAc
# Method in brief: as §1
# Fuc(b1-3)GlcNAc = target: Fuc(b1-3)GlcNAc
# Method in brief: as §1
# Gal(a1-2)Gal = target: Gal(a1-2)Gal
# Method in brief: as §1
# Gal(a1-3)Gal = target: Gal(a1-3)Gal
# Method in brief: as §1
# Gal(a1-3)Gal(b1-3)GlcNAc = target: Gal(a1-3)Gal(b1-3)GlcNAc
# Method in brief: as §1
# [5] = target: Gal(a1-3)Gal(b1-3)GlcNAc(b1-2)Man
# Method in brief: as §1
# [6] = target: Gal(a1-3)Gal(b1-3)GlcNAc(b1-2)Man(a1-3)[Gal(a1-3)Gal(b1-3)GlcNAc(b1-2)Man(a1-6)]Man(b1-4)GlcNAc(b1-4)GlcNAc
# Method in brief: as §1
# [7] = target: Gal(a1-3)Gal(b1-3)GlcNAc(b1-3)GalNAc
# Method in brief: as §1
# [8] = target: Gal(a1-3)Gal(b1-3)GlcNAc(b1-6)GalNAc
# Method in brief: as §1
# [9] = target: Gal(a1-3)Gal(b1-3)[Fuc(a1-4)]GlcNAc(b1-2)Man(a1-3)[Gal(a1-3)Gal(b1-3)[Fuc(a1-4)]GlcNAc(b1-2)Man(a1-6)]Man(b1-4)GlcNAc(b1-4)GlcNAc
# Method in brief: as §1
# Gal(a1-3)Gal(b1-4)Glc = target: Gal(a1-3)Gal(b1-4)Glc
# Method in brief: as §1
# Gal(a1-3)Gal(b1-4)GlcNAc = target: Gal(a1-3)Gal(b1-4)GlcNAc
# Method in brief: as §1
# [10] = target: Gal(a1-3)Gal(b1-4)GlcNAc(b1-2)Man
# Method in brief: as §1
# [11] = target: Gal(a1-3)Gal(b1-4)GlcNAc(b1-2)Man(a1-3)[Gal(a1-3)Gal(b1-4)GlcNAc(b1-2)Man(a1-6)]Man(b1-4)GlcNAc(b1-4)GlcNAc
# Method in brief: as §1
# [12] = target: Gal(a1-3)Gal(b1-4)GlcNAc(b1-3)GalNAc
# Method in brief: as §1
# [13] = target: Gal(a1-3)Gal(b1-4)GlcNAc(b1-6)GalNAc
# Method in brief: as §1
# [14] = target: Gal(a1-3)Gal(b1-4)[Fuc(a1-3)]GlcNAc
# Method in brief: as §1
# [15] = target: Gal(a1-3)Gal(b1-4)[Fuc(a1-3)]GlcNAc(b1-2)Man(a1-3)[Gal(a1-3)Gal(b1-4)[Fuc(a1-3)]GlcNAc(b1-2)Man(a1-6)]Man(b1-4)GlcNAc(b1-4)GlcNAc
# Method in brief: as §1
# Gal(a1-3)GalNAc = target: Gal(a1-3)GalNAc
# Method in brief: as §1
# [16] = target: Gal(a1-3)[Gal(a1-4)]Gal(b1-4)GlcNAc
# Method in brief: as §1
# [17] = target: Gal(a1-4)Gal(b1-3)GlcNAc(b1-2)Man(a1-3)[Gal(a1-4)Gal(b1-3)GlcNAc(b1-2)Man(a1-6)]Man(b1-4)GlcNAc(b1-4)GlcNAc
# Method in brief: as §1
# Gal(a1-4)Gal(b1-4)Glc = target: Gal(a1-4)Gal(b1-4)Glc
# Method in brief: as §1
# Gal(a1-4)Gal(b1-4)GlcNAc = target: Gal(a1-4)Gal(b1-4)GlcNAc
# Method in brief: as §1
# [18] = target: Gal(a1-4)Gal(b1-4)GlcNAc(b1-2)Man(a1-3)[Gal(a1-4)Gal(b1-4)GlcNAc(b1-2)Man(a1-6)]Man(b1-4)GlcNAc(b1-4)GlcNAc
# Method in brief: as §1
# [19] = target: Gal(a1-4)Gal(b1-4)GlcNAc(b1-3)Gal(b1-4)Glc
# Method in brief: as §1
# Gal(a1-4)GlcNAc = target: Gal(a1-4)GlcNAc
# Method in brief: as §1
# Gal(a1-6)Glc = target: Gal(a1-6)Glc
# Method in brief: as §1
# Gal(b1-2)Gal = target: Gal(b1-2)Gal
# Method in brief: as §1
# Gal(b1-3)Gal = target: Gal(b1-3)Gal
# Method in brief: as §1
# Gal(b1-3)Gal(b1-4)GlcNAc = target: Gal(b1-3)Gal(b1-4)GlcNAc
# Method in brief: as §1
# Gal(b1-3)GalNAc = target: Gal(b1-3)GalNAc
# Method in brief: as §1
# [20] = target: Gal(b1-3)GalNAc(a1-3)[Fuc(a1-2)]Gal(b1-4)Glc
# Method in brief: as §1
# [21] = target: Gal(b1-3)GalNAc(a1-3)[Fuc(a1-2)]Gal(b1-4)GlcNAc
# Method in brief: as §1
binder,measurement,setting,value
"Siglec-E (Mus musculus), Q91Y57 (protein) MLLLLLLLLLWGIKGVEGQNPQEVFTLNVERKVVVQEGLCVLVPCNFSYLKKRLTDWTDSDPVHGFWYREGTDRRKDSIVATNNPIRKAVKETRNRFFLLGDPWRNDCSLNIREIRKKDAGLYFFRLERGKTKYNYMWDKMTLVVTALTNTPQILLPETLEAGHPSNLTCSVPWDCGWTAPPIFSWTGTSVSFLSTNTTGSSVLTITPQPQDHGTNLTCQVTLPGTNVSTRMTTRLNVSYAPKNLTVTIYQGADSVSTILKNGSSLPISEGQSLRLICSTDSYPPANLSWSWDNLTLCPSKLSKPGLLELFPVHLKHGGVYTCQAQHALGSQHISLSLSPQSSATLSEMMMGTFVGSGVTALLFLSVCILLLAVRSYRRKPARPAVVAPHPDALKVSVSQNPLVESQADDSSEPLPSILEAAPSSTEEEIHYATLSFHEMKPMNLWGQQDTTTEYSEIKFPQRTAWP",glycan array binding signal (z-score),[1],-0.387
same,glycan array binding signal (z-score),[2],-0.369
same,glycan array binding signal (z-score),[3],-0.32
same,glycan array binding signal (z-score),[4],-0.504
same,glycan array binding signal (z-score),Fuc(a1-4)GlcNAc,4.01
same,glycan array binding signal (z-score),Fuc(b1-3)GlcNAc,-0.213
same,glycan array binding signal (z-score),Gal(a1-2)Gal,0.223
same,glycan array binding signal (z-score),Gal(a1-3)Gal,-0.326
same,glycan array binding signal (z-score),Gal(a1-3)Gal(b1-3)GlcNAc,1.98
same,glycan array binding signal (z-score),[5],-0.324
same,glycan array binding signal (z-score),[6],0.298
same,glycan array binding signal (z-score),[7],-0.031
same,glycan array binding signal (z-score),[8],-0.337
same,glycan array binding signal (z-score),[9],1.76
same,glycan array binding signal (z-score),Gal(a1-3)Gal(b1-4)Glc,-0.331
same,glycan array binding signal (z-score),Gal(a1-3)Gal(b1-4)GlcNAc,-0.456
same,glycan array binding signal (z-score),[10],-0.325
same,glycan array binding signal (z-score),[11],0.197
same,glycan array binding signal (z-score),[12],-0.306
same,glycan array binding signal (z-score),[13],0.081
same,glycan array binding signal (z-score),[14],-0.381
same,glycan array binding signal (z-score),[15],6.54
same,glycan array binding signal (z-score),Gal(a1-3)GalNAc,-0.309
same,glycan array binding signal (z-score),[16],-0.489
same,glycan array binding signal (z-score),[17],1.04
same,glycan array binding signal (z-score),Gal(a1-4)Gal(b1-4)Glc,-0.433
same,glycan array binding signal (z-score),Gal(a1-4)Gal(b1-4)GlcNAc,-0.307
same,glycan array binding signal (z-score),[18],4.23
same,glycan array binding signal (z-score),[19],0.116
same,glycan array binding signal (z-score),Gal(a1-4)GlcNAc,-0.029
same,glycan array binding signal (z-score),Gal(a1-6)Glc,0.863
same,glycan array binding signal (z-score),Gal(b1-2)Gal,0.795
same,glycan array binding signal (z-score),Gal(b1-3)Gal,-0.177
same,glycan array binding signal (z-score),Gal(b1-3)Gal(b1-4)GlcNAc,-0.169
same,glycan array binding signal (z-score),Gal(b1-3)GalNAc,-0.377
same,glycan array binding signal (z-score),[20],-0.496
same,glycan array binding signal (z-score),[21],-0.427
